The BET-seq Pho4 binding data (Le et al. 2018)
This is one part of the list. Values were computed here from the reads of four pooled replicates and scatter widely.

molecular target: T1, Pho4 (S. cerevisiae) (UniProt P07270); assay: relative binding free energy (BET-seq); higher = weaker binding; conditions: reference: library average
T1 sequence: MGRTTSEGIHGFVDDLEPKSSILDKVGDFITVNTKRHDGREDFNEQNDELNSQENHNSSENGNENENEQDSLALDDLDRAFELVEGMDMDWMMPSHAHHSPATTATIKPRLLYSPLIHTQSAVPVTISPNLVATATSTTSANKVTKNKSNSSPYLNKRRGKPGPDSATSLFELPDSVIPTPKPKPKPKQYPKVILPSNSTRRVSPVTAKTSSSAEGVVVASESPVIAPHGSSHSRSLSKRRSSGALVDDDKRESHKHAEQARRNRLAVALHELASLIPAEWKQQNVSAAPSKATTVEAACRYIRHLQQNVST

| Sequence | relative binding free energy [kcal/mol] |
| --- | --- |
| TTCCGCACGTGTGTGA | -0.05 |
| ATTAGCACGTGATTGG | 0.11 |
| GCAGGCACGTGAGGCG | 0.24 |
| GTCTTCACGTGGCGGT | 0.28 |
| ATGTACACGTGATTTG | 0.17 |
| TGGCTCACGTGGTAAT | 0.12 |
| TTATGCACGTGCTTGG | 0 |
| CGGTGCACGTGACGTT | 0.14 |
| TGACGCACGTGATGGG | 0.09 |
| ATAAGCACGTGGGATT | -0.18 |
| TGTAGCACGTGGTCTA | -0.22 |
| TTGCTCACGTGCTGTG | 0.14 |
| GTGGACACGTGATATG | 0.11 |
| GGTTTCACGTGTGTTC | 0.4 |
| AACGTCACGTGGGTAG | -0.11 |
| GTTTTCACGTGCAATA | 0.43 |
| TGTTTCACGTGTCACT | 0.25 |
| TGGCACACGTGTTTGG | 0 |
| ATATACACGTGTTGTC | 0.16 |
| GTAGCCACGTGTGGGG | -0.07 |
| TTGTGCACGTGCTGAA | -0.08 |
| TGGAACACGTGGCGCG | 0.03 |
| CCTGTCACGTGTGTGT | 0.04 |
| ATTGACACGTGTTCTG | 0.02 |
| AAGGTCACGTGGGATC | 0.01 |

| Sequence | relative binding free energy [kcal/mol] |
| --- | --- |
| GGATTCACGTGGTAAG | 0.33 |
| TATTGCACGTGTCGGC | 0.08 |
| TAGGACACGTGATAGG | 0.11 |
| TGGAACACGTGTTAGG | 0.12 |
| TTGTGCACGTGAGGCT | 0.24 |
| TTTTACACGTGCGATA | 0.15 |
| TAGGCCACGTGGTGGA | -0.14 |
| GCAGTCACGTGTTGGT | 0.23 |
| TTTTCCACGTGCGGTT | 0.13 |
| GCGTACACGTGTAGTG | 0.07 |
| ACTGGCACGTGAGCGG | 0.06 |
| AGTCTCACGTGTAGCG | 0.31 |
| TATTTCACGTGTAAAG | 0.24 |
| TTGGGCACGTGCTTAA | -0.19 |
| TGAGTCACGTGTGGAG | 0.17 |
| ATATGCACGTGGGTTA | -0.18 |
| GTTATCACGTGGGGTA | 0.03 |
| ATAGGCACGTGAGTTT | 0.22 |
| TTCAACACGTGGAGGG | -0.04 |
| ATGGGCACGTGGAGCG | -0.11 |
| TTCTGCACGTGGAGGA | 0.04 |
| GGGTGCACGTGTTTCT | 0.13 |
| ATATGCACGTGAAATA | 0.32 |
| TTGTTCACGTGGAAAG | 0.32 |
| CGTGGCACGTGTTGGT | -0.11 |

| Sequence | relative binding free energy [kcal/mol] |
| --- | --- |
| TTATGCACGTGGCAGG | -0.04 |
| GTATGCACGTGGAGGA | -0.05 |
| TTTAACACGTGCTTTG | -0.1 |
| CGTTACACGTGCGGGG | -0.1 |
| TTAAGCACGTGGGAGC | -0.14 |
| TTTCACACGTGTGGAT | 0.18 |
| ACTTTCACGTGTTCGT | 0.28 |
| GAGATCACGTGTAAGT | 0.27 |
| GACGGCACGTGGTGTG | -0.09 |
| TAGAGCACGTGGATGC | 0.01 |
| TGGGGCACGTGGACGT | -0.21 |
| AATGTCACGTGGGCGG | -0.01 |
| TGGATCACGTGGCGTC | 0.14 |
| CGGTTCACGTGATGCT | 0.3 |
| AGATTCACGTGCTTGG | 0.27 |
| GGTGACACGTGTGGAC | 0.11 |
| ATAGTCACGTGAATTT | 0.41 |
| ATTTGCACGTGACTTG | 0.11 |
| TGACGCACGTGGGTAG | -0.22 |
| CAGGCCACGTGGTGGG | -0.05 |
| AGAGACACGTGAGTAG | 0.29 |
| TTCTGCACGTGCGGGT | 0 |
| CATTTCACGTGGGGGT | 0.08 |
